Some of the results follow.

In this assay the test system is PF3D7_0420300 AP2 domain 1 (GST-tagged). Put plainly: gcPBM binding intensity (ln(normalized median fluorescence intensity)); higher = stronger DNA binding. An outline of the steps:
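GST-tagged P. falciparum DNA-binding domains, expressed in E. coli (about 25 μg on average), were applied for 1 h to an Agilent 4 × 180k array of primer-extended double-stranded 36-bp intergenic genomic probes plus negative controls. The binding buffer was 1× PBS with 1% milk, 0.2 mg/ml BSA, 0.5% salmon testes DNA and 0.03% Triton X-100. Bound protein was detected with Alexa488 anti-GST antibody and scanned at 488 nm. Binding intensity is the highest Masliner-normalised natural-log median intensity across replicate spots of either probe orientation.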
Consider “ATATTACTTCCTAAGTGTACAAGTAAGGAGAAAAAA [XGTACX_site3921]”, for which the “gcPBM binding intensity (ln)” value is 9.24. In the case of “AAAAAAAAAAAAAACACACACACAAAATAAACAAAC [CACACA_site2720]”, the “gcPBM binding intensity (ln)” value was found to be 10.3.

With “AGATGTTTTTATATATGTACTTAAATACACAAATAT [XGTACX_site8250]”, the “gcPBM binding intensity (ln)” value came out at 9.19. Then “TGATAATTTTTTACATGTACAAGTTTGTTTTTGCAT [XGTACX_site125]”, with 9.36; and “TTATCGGTATAATATAGTACATATAGATATATAATA [XGTACX_site1440]”, with 9.21.

Consider “TGAAAAATAAATAAATGTACATATATATATATATAC [XGTACX_site7310]”, for which the “gcPBM binding intensity (ln)” value amounted to 9.18. Regarding “AAAAGGTTATCAATATGTACATATTTTTTTATTTTT [XGTACX_site3277]”, the “gcPBM binding intensity (ln)” value came out at 9.32.

Turning to “AGAAATACAAAATAAATATAAGAAACAAAATATTTA [CACACA_negctrl_site780]”, the “gcPBM binding intensity (ln)” value came out at 9.42.

As for “TTTTAATTAAAACACACACACACATATATATATATA [CACACA_site2291]”, the “gcPBM binding intensity (ln)” value turned out to be 10. Turning to “TATTTCATCATATTGTGTACTTAATTTATATAATTA [XGTACX_site5753]”, the “gcPBM binding intensity (ln)” value is 9.33. With “ATAAAAATATGATCAACACACGATTAAATATTCATA [CACACA_site1495]” the figure was 9.46; with “CATCTAAATTGTAGTTGTACACCTTAATCTTATTAC [XGTACX_site7547]”, 9.4; with “TATTTTATCATTTGCACACGCACACCGACATAAAAA [CACACA_site4348]”, 9.51. With “ATTTTAGAATAAATTTTTTACATTAAAAAACTATTT [CACACA_negctrl_site1414]” the figure was 8.88. In the case of “ACTCTCTTATATTAAACACACATATTTATAGGTATA [CACACA_site7302]”, the “gcPBM binding intensity (ln)” value came to 9.44. “GTATCAAAAGAATACACACACACATACATATATATA [CACACA_site3796]”: the “gcPBM binding intensity (ln)” value is 10.2. For the sequence “CATACAATAAATATGGTGCATTTTATGTAACCGTTT [GTGCAC_site9420]”, the “gcPBM binding intensity (ln)” value came to 9.14.

For “TGAACATATTAAAATTGTACATATGCACAATATGTA [XGTACX_site6801]”, the “gcPBM binding intensity (ln)” value worked out at 9.08.

On to “CACATACAGACATACACACACATATAGATTAATATA [CACACA_site6399]”, for which the “gcPBM binding intensity (ln)” value is 9.93. Regarding “TATATATATATATTATGTACATATATATTAAATATG [XGTACX_site2494]”, the “gcPBM binding intensity (ln)” value stood at 9.03. As to “AATAAGAAATGTAAATGTACATAAAAAAAAGTATAT [XGTACX_site3573]”, the “gcPBM binding intensity (ln)” value turned out to be 9.52.

As to “TTAGGGTTTTATAAATGTACTTATTTATACATCCTC [XGTACX_site5769]”, the “gcPBM binding intensity (ln)” value amounted to 9.14. With “TAAACATTTTTGCACGCACACAAAAAAAAAATAAAA [CACACA_site167]”, the “gcPBM binding intensity (ln)” value was determined as 9.28. As to “ATTTTTTAACATATCATACACACAACCACTTTTTAT [CACACA_site1961]”, the “gcPBM binding intensity (ln)” value is 9.79.
